According to PubChem BioAssay AID485344 (National Center for Advancing Translational Sciences (NCATS), 2010):
Among all 340,000 compounds or so, about 6,900 (2%) were called active. Rule as the data show it: active = inhibition above about 30%; inactive = below that, where a call was filed. The entries are a selection whose mix differs from that of the whole data set. Entries without a call were filed so in the source.

target: D(2) dopamine receptor (Homo sapiens) (UniProt P14416); assay: HTS Assay for Allosteric Antagonists of the Human D2 Dopamine Receptor: Primary Screen for Antagonists; details: HEK293 TREx D2 cells, calcium flux, dopamine EC80; at 10 µM; stronger effect = higher value; also: 0% is about no effect
Sequence of UniProt P14416 (P14416 whole entry, looked up): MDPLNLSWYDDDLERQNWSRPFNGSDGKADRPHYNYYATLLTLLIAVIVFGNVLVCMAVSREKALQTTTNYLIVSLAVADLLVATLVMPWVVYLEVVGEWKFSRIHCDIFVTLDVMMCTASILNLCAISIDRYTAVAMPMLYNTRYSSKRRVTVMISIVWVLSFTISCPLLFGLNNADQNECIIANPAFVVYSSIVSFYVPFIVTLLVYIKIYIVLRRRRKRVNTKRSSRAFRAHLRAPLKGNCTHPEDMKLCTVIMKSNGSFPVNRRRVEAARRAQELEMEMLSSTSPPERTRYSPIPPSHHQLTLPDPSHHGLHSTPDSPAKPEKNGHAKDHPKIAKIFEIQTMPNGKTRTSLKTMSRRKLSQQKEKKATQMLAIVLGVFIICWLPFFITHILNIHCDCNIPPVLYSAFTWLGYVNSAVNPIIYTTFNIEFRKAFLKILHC
How it was run: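 Tetracycline-induced HEK293 TREx cells expressing D2 receptor forced-coupled to calcium signalling, loaded with no-wash calcium dye. Compounds added and calcium flux read 180 s, then dopamine added at EC80 and read a further 180 s.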

Question: With `O=C(CCC(=O)N1CCc2ccccc21)Nc1ccccc1` as the compound, how does the inhibition read?
Answer: active: 36.1%

Question: How did the inhibition turn out when `CCc1sc(Nc2ccc(Cl)cc2)nc1-c1cc2cccc(OC)c2oc1=O` was run?
Answer: -9.81%

Question: `COc1ccc(-c2noc(N3CCN(c4cccc(Cl)c4)CC3)n2)cc1OC` was tested. Which inhibition did it give?
Answer: -4.18%

Question: How did the inhibition turn out when `CC(C(=O)Nc1ccc(F)c(Cl)c1)N1Cc2ccccc2C1=O` (centres undefined) was run?
Answer: -18.1%

Question: With `Cc1cc(OCC(=O)Nc2cc(-c3nc4ccccc4[nH]3)ccc2C)ccc1Cl` as the compound, how does the inhibition read?
Answer: -2.24%

Question: How did the inhibition turn out when `CCSc1oc(-c2ccc(F)cc2)nc1S(=O)(=O)c1ccc(C)cc1` was run?
Answer: -23.3%

Question: For `CCOc1ccc(C(=O)CSc2nnc3cc(C)c4ccccc4n23)cc1`, which inhibition is on record?
Answer: 13.8%

Question: `Cc1ccccc1C(=O)Nc1nnc(SCc2cc(=O)n3ccccc3n2)s1` was tested. Which inhibition did it give?
Answer: -12.2%

Question: How did the inhibition turn out when `CCOc1cc(C(=O)Nc2nnc3n2CCS3)cc(OCC)c1OCC` was run?
Answer: -5.24%

Question: Which inhibition does the source give for `COc1ccccc1CNC(=O)COc1cc(=O)n(C)c2ccccc12` here?
Answer: -3.37%

Question: How did the inhibition turn out when `COc1ccc(NC(=O)CCN2CCN(CCO)CC2)c(OC)c1` was run?
Answer: -6.29%

Question: `CCCCn1c(N)c(N(CC(C)C)C(=O)C2CC(=O)N(c3ccc4c(c3)OCCO4)C2)c(=O)[nH]c1=O` (centres undefined) was tested. Which inhibition did it give?
Answer: active: 39.5%

Question: For `O=C(Nc1ccc2nc(SCc3ccccc3)sc2c1)c1cccc(F)c1`, which inhibition is on record?
Answer: 2.49%

Question: How did the inhibition turn out when `COc1ccc(OCCSc2nc(C)c(Cc3ccccc3)c(=O)[nH]2)cc1` was run?
Answer: -16.6%

Question: For `COc1ccccc1Cn1cc(C(=O)c2ccc(Cl)cc2)c(=O)c2cc3c(cc21)OCCO3`, which inhibition is on record?
Answer: -4.72%

Question: With `COc1ccc(Oc2nc3c(c(=O)n(C)c(=O)n3C)n2Cc2ccccc2Cl)cc1` as the compound, how does the inhibition read?
Answer: -11.2%

Question: With `Cc1ccc(CN2CCC(CNC(=O)c3cc4ccc5cccnc5c4[nH]3)CC2)cc1` as the compound, how does the inhibition read?
Answer: -14.7%

Question: How did the inhibition turn out when `CCOc1cc2sc(N3CCC(C(=O)Nc4ccccc4Cl)CC3)nc2cc1Br` was run?
Answer: 1.66%

Question: With `CN(C)C(CNC(=O)c1cccc(C(F)(F)F)c1)c1ccco1` (centres undefined) as the compound, how does the inhibition read?
Answer: active: 31.3%

Question: With `Cc1ccc(-c2nn(CC(=O)NC3CCCC3)c3c2cnc2ccc(F)cc23)cc1C` as the compound, how does the inhibition read?
Answer: -0.32%

Question: `Cc1cc(S(=O)(=O)C(CNC(=O)COc2ccccc2)c2cccs2)ccc1F` (centres undefined) was tested. Which inhibition did it give?
Answer: 8.92%

Question: `COc1ccc(OC)c(CNC(=O)c2cc3cc4ccc(OC)cc4nc3o2)c1` was tested. Which inhibition did it give?
Answer: 1.07%

Question: With `COc1ccc(-c2noc(COc3cc(C)c(Br)c(C)c3)n2)cc1OC` as the compound, how does the inhibition read?
Answer: -10.9%

Question: How did the inhibition turn out when `Cc1cc(NC(=O)c2ccccc2Cl)ccc1NC(=O)c1ccccc1` was run?
Answer: 8.01%

Question: With `COc1ccccc1OCc1ccc(C(=O)N/N=C/c2ccco2)cc1` as the compound, how does the inhibition read?
Answer: active: 43.6%

Question: `COC(=O)[C@@H](N)Cc1ccc(O)c(O)c1` was tested. Which inhibition did it give?
Answer: active: 80.9%

Question: With `Cc1ccc(C(=O)/C=C/c2cn(CC(O)CN3CCc4ccccc43)c3ccccc23)cc1` (centres undefined) as the compound, how does the inhibition read?
Answer: 2.53%

Question: With `Cc1cc(-n2c(C)nc3ccccc3c2=O)ccc1NC(=O)c1ccc(C)c([N+](=O)[O-])c1` as the compound, how does the inhibition read?
Answer: 12.2%

Question: `CCc1nc2sc3c(N4CCC(C)CC4)ncnc3c2c2c1CCCC2` was tested. Which inhibition did it give?
Answer: -1.23%

Question: With `Cc1ccc(CN(C(=O)COc2ccc(Cl)c(C)c2)c2ccccn2)o1` as the compound, how does the inhibition read?
Answer: 6.03%

Question: Which inhibition does the source give for `O=C(CN1C(=O)COc2ccc(S(=O)(=O)N3CCOCC3)cc21)N1CCN(c2cccc(C(F)(F)F)c2)CC1` here?
Answer: 14.4%

Question: How did the inhibition turn out when `COc1cc(C2c3c(-c4c(C)cc(C)cc4O)n[nH]c3C(=O)N2CCO)cc(OC)c1OC` (centres undefined) was run?
Answer: 10.4%

Question: How did the inhibition turn out when `Cc1ccc(-c2cc(-c3ccc4c(c3)NC(=O)CO4)nc3c2COc2ccc(C)cc2-3)cc1` was run?
Answer: 6%

Question: For `CN(C)S(=O)(=O)c1ccc(C(=O)NCCS(=O)(=O)N2CCN(c3ccccc3)CC2)cc1`, which inhibition is on record?
Answer: -15.1%

Question: `Cc1nc2nc(SCc3c(F)cccc3Cl)nn2c(C)c1Cc1ccccc1` was tested. Which inhibition did it give?
Answer: 11.8%

Question: For `COCCNC(=O)C(=O)NCC(c1cccnc1)N1CCN(c2ccccc2OC)CC1` (centres undefined), which inhibition is on record?
Answer: 7.76%

Question: `CC(C)(C)NC(=O)c1cnn(-c2ccccc2)c1C1CCN(C(=O)OC(C)(C)C)CC1` was tested. Which inhibition did it give?
Answer: -3.19%

Question: `O=C(NCc1ccccc1Cl)c1cc2c(s1)-c1ccccc1SC2` was tested. Which inhibition did it give?
Answer: -4.02%

Question: For `O=C(Cn1ncc2c3ccccc3n(Cc3ccccc3F)c2c1=O)NC1CCCCCC1`, which inhibition is on record?
Answer: 7.24%

Question: For `Cc1ccc(CSc2ccc(-c3cccs3)nn2)cc1`, which inhibition is on record?
Answer: 4.55%

Question: Which inhibition does the source give for `O=S(=O)(Nc1cccc(-c2ccc(N3CCCCCC3)nn2)c1)c1ccccc1F` here?
Answer: -2.9%

Question: With `CCCNC(=S)NC1CC2CCC(C1)N2Cc1ccccc1` (centres undefined) as the compound, how does the inhibition read?
Answer: active: 67.3%

Question: Which inhibition does the source give for `COc1cc(C(=O)NCC(c2cccnc2)N2CCc3ccccc3C2)cc(OC)c1OC` (centres undefined) here?
Answer: 21.4%

Question: How did the inhibition turn out when `CCC(=O)Nc1ccccc1-c1nc2ccccc2n(CC(=O)c2ccc(C)c(C)c2)c1=O` was run?
Answer: 15.7%

Question: How did the inhibition turn out when `COc1cccc(NC(=O)CSc2nc3c([nH]c4ccccc43)c(=O)n2-c2ccccc2)c1` was run?
Answer: 6.92%

Question: `CCCN1C(=O)c2[nH]nc(-c3ccccc3O)c2C1c1cccc(OCc2ccccc2)c1` (centres undefined) was tested. Which inhibition did it give?
Answer: -5.69%

Question: How did the inhibition turn out when `Cc1ccc(NC(=O)CSc2nnc(C)n3c2cc2sccc23)c(C)c1` was run?
Answer: -9.8%

Question: With `COc1cc(OC)c(NC(=O)C(CC(C)C)N2Cc3ccccc3C2=O)cc1Cl` (centres undefined) as the compound, how does the inhibition read?
Answer: -16.9%

Question: With `CCOc1ccccc1NC(=O)CSc1cn(CC(=O)N2CCCCCC2)c2ccccc12` as the compound, how does the inhibition read?
Answer: 7.58%
